This is one part of the list.
B1: PhoQ; a variant is named by its letters at X, in order, P23837 (parent)
chain: MKKLLRLFFPLSLRVRFLLATAAVVLVLSLAYGMVALIGYSVSFDKTTFRLLRGESNLFYTLAKWENNKLHVELPENIDKQSPTMTLIYDENGQLLWAQRDVPWLMKMIQPDWLKSNGFHEIEADVNDTSLLLSGDHSIQQQLQEVREDDDDAEMTHSVAVNVYPATSRMPKLTIVVVDTIPVELKSSYMVWSWFIYVLSANLLLVIPLLWVAAWWSLRPIEALAKEVRELEEHNRELLNPATTRELTSLVRNLNRLLKSERERYDKYRTTLTDLTHSLKTPLXXLQXXLRSLRSEKMSVSDAEPVMLEQISRISQQIGYYLHRASMRGGTLLSRELHPVAPLLDNLTSALNKVYQRKGVNISLDISPEISFVGEQNDFVEVMGNVLDNACKYCLEFVEISARQTDEHLYIVVEDDGPGIPLSKREVIFDRGQRVDTLRPGQGVGLAVAREITEQYEGKIVAGESMLGGARMEVIFGRQHSAPKDE

Variants of: B1
Test: enrichment ratio after two sorts for PhoP signalling (ratio (wild type AVST 3.29)); higher = more functional
Conditions: with PhoP (E. coli)

Variant | enrichment ratio
SCRW | ≤ 0.25
PDDI | ≤ 0.25
ATIQ | 5.38
CFYA | ≤ 0.25
KGAS | ≤ 0.25
SDDH | ≤ 0.25
QFTI | ≤ 0.25
LWFE | ≤ 0.25
MTCV | ≤ 0.25
FCHP | ≤ 0.25
YQLS | ≤ 0.25
SSAG | 9.87
APAP | ≤ 0.25
MDAD | ≤ 0.25
NHHD | ≤ 0.25
PHSQ | ≤ 0.25
TCSD | ≤ 0.25
KRDN | ≤ 0.25
RKSP | ≤ 0.25
VYIY | ≤ 0.25
PVMY | ≤ 0.25
GMKL | ≤ 0.25
HWYH | ≤ 0.25
LSTG | ≤ 0.25

Variant | enrichment ratio
EEFH | ≤ 0.25
ACFT | ≤ 0.25
REMN | ≤ 0.25
NFRN | ≤ 0.25
FIFA | ≤ 0.25
PMWI | ≤ 0.25
GFAV | ≤ 0.25
IKCV | ≤ 0.25
GCAI | ≤ 0.25
YATW | ≤ 0.25
GNRG | ≤ 0.25
GKVP | ≤ 0.25
VTGT | ≤ 0.25
YAYV | ≤ 0.25
MSWP | ≤ 0.25
QASC | 4.41
TKES | ≤ 0.25
ARHW | ≤ 0.25
VLDA | ≤ 0.25
RSMM | ≤ 0.25
QKKF | ≤ 0.25
RLDI | ≤ 0.25
HQGL | ≤ 0.25
SDED | ≤ 0.25

Variant | enrichment ratio
DPCE | ≤ 0.25
RYGY | ≤ 0.25
MTDG | ≤ 0.25
QYRM | ≤ 0.25
HHFL | ≤ 0.25
KDKP | ≤ 0.25
VAHP | ≤ 0.25
DFYT | ≤ 0.25
MQSI | ≤ 0.25
KSII | ≤ 0.25
VDYV | ≤ 0.25
NSGH | ≤ 0.25
PWVV | ≤ 0.25
IGTY | ≤ 0.25
DGHI | ≤ 0.25
GVDH | ≤ 0.25
PLQY | ≤ 0.25
ANCS | 2.95
AKFQ | ≤ 0.25
GKYF | ≤ 0.25
AHFT | ≤ 0.25
FMWY | ≤ 0.25
GGSQ | 2.74
LISC | ≤ 0.25

Variant | enrichment ratio
VMWD | ≤ 0.25
QHDK | ≤ 0.25
LTDW | ≤ 0.25
QHMS | ≤ 0.25
SAVM | 4.22
QCVI | ≤ 0.25
VRGQ | ≤ 0.25
PIRI | ≤ 0.25
IYKE | ≤ 0.25
FKTM | ≤ 0.25
RPMW | ≤ 0.25
PDWR | ≤ 0.25
YFYH | ≤ 0.25
AKHN | ≤ 0.25
PFIE | ≤ 0.25
DVNR | ≤ 0.25
RNHG | ≤ 0.25
HPMQ | ≤ 0.25
LKLG | ≤ 0.25
GTKN | ≤ 0.25
FLQD | ≤ 0.25
NFWS | ≤ 0.25
SVIS | 0.664
GNRS | ≤ 0.25

Variant | enrichment ratio
DCDP | ≤ 0.25
RTQA | ≤ 0.25
YAGM | ≤ 0.25
EMLS | ≤ 0.25
WKWL | ≤ 0.25
LCAV | 3.29
MDTP | ≤ 0.25
LLFS | ≤ 0.25
GATH | ≤ 0.25
DQFY | ≤ 0.25
SFCV | 0.287
NLCS | ≤ 0.25
RHNF | ≤ 0.25
PALK | ≤ 0.25
KMNI | ≤ 0.25
GNFL | ≤ 0.25
SNYQ | ≤ 0.25
AALQ | 9.54
GDGH | ≤ 0.25
NAMY | ≤ 0.25
FLGP | ≤ 0.25
SDGD | ≤ 0.25
YFRG | ≤ 0.25
RTVG | ≤ 0.25

Variant | enrichment ratio
RFEW | ≤ 0.25
FMNN | ≤ 0.25
NNRT | ≤ 0.25
KDWG | ≤ 0.25
CCVR | ≤ 0.25
FKSC | ≤ 0.25
ATIP | ≤ 0.25
KVHS | ≤ 0.25
HQRM | ≤ 0.25
PHEQ | ≤ 0.25
QLGG | ≤ 0.25
WLCA | ≤ 0.25
AACT | 12.4
EFDP | ≤ 0.25
EQGL | ≤ 0.25
GSHA | ≤ 0.25
NTIF | ≤ 0.25
LMLT | ≤ 0.25
LTVK | ≤ 0.25
ESMR | ≤ 0.25
HYWG | ≤ 0.25
RQMP | ≤ 0.25
SYLP | ≤ 0.25
GLTF | 6.67

Variant | enrichment ratio
PLCH | ≤ 0.25
TDCI | ≤ 0.25
LRPN | ≤ 0.25
HVVI | ≤ 0.25
PYII | ≤ 0.25
ANEP | ≤ 0.25
PHSC | ≤ 0.25
LHVK | ≤ 0.25
TYVG | 0.756
FGPE | ≤ 0.25
IYAY | 2.35
IQYQ | ≤ 0.25
QHWQ | ≤ 0.25
YGYS | ≤ 0.25
QNRY | ≤ 0.25
RYNY | ≤ 0.25
WTWN | ≤ 0.25
HPTL | ≤ 0.25
WEYA | ≤ 0.25
SRRE | ≤ 0.25
RVSK | ≤ 0.25
ETFA | ≤ 0.25
PWMF | ≤ 0.25
WNHY | ≤ 0.25

Variant | enrichment ratio
QPST | ≤ 0.25
GFTC | ≤ 0.25
HLHK | ≤ 0.25
RETD | ≤ 0.25
FDGF | ≤ 0.25
YSYV | ≤ 0.25
MSEH | ≤ 0.25
RHKN | ≤ 0.25
LNAY | ≤ 0.25
DSQF | ≤ 0.25
VYQS | ≤ 0.25
SHFY | ≤ 0.25
FMQH | ≤ 0.25
DKPS | ≤ 0.25
WSYV | ≤ 0.25
HDAN | ≤ 0.25
RYHP | ≤ 0.25
EGRA | ≤ 0.25
GPDG | ≤ 0.25
DLIP | ≤ 0.25
FGRV | ≤ 0.25
MAAW | ≤ 0.25
AKKY | ≤ 0.25
WHAW | ≤ 0.25

Variant | enrichment ratio
SHLK | ≤ 0.25
PSTS | ≤ 0.25
QYNI | ≤ 0.25
VEQQ | ≤ 0.25
LIVQ | ≤ 0.25
VGND | ≤ 0.25
YFKM | ≤ 0.25
RYQI | ≤ 0.25
VYPR | ≤ 0.25
HWTR | ≤ 0.25
FPAH | ≤ 0.25
NLTL | 4.17
NARQ | ≤ 0.25
YDGC | 2.74
TECW | 37.6
VDSE | ≤ 0.25
KADN | ≤ 0.25
FPAI | ≤ 0.25
KFTV | ≤ 0.25
KLTY | ≤ 0.25
ENYS | ≤ 0.25
EPHE | ≤ 0.25
DTDL | ≤ 0.25
WQAR | ≤ 0.25

Variant | enrichment ratio
NFVE | ≤ 0.25
KPAY | ≤ 0.25
SQRE | ≤ 0.25
HIHH | ≤ 0.25
VLGI | ≤ 0.25
SEIN | 8.3
QHGN | ≤ 0.25
NWKT | ≤ 0.25
EQML | ≤ 0.25
DCSC | ≤ 0.25
SCNY | 5.7
HCGM | ≤ 0.25
SKFQ | ≤ 0.25
GGKL | ≤ 0.25
PMNN | ≤ 0.25
FGEG | ≤ 0.25
VRSQ | ≤ 0.25
AHPK | ≤ 0.25
MLGR | ≤ 0.25
HRVD | ≤ 0.25
KQST | ≤ 0.25
FNHN | ≤ 0.25
YIPD | ≤ 0.25
EGGK | ≤ 0.25

Variant | enrichment ratio
AGGV | 11.4
DIYR | ≤ 0.25
MSGL | 6.17
ENFK | ≤ 0.25
RVVD | ≤ 0.25
MKMV | ≤ 0.25
TWCQ | ≤ 0.25
TECK | 4.11
FTPE | ≤ 0.25
YLNT | ≤ 0.25
PWFQ | ≤ 0.25
AMWP | 4.37
WIAW | ≤ 0.25
SKDF | ≤ 0.25
FSFD | ≤ 0.25
NCDG | ≤ 0.25
SGTW | ≤ 0.25
LEQG | ≤ 0.25
DSYC | ≤ 0.25
LGYV | 3.76
LAWS | ≤ 0.25
RICG | ≤ 0.25
GHAD | ≤ 0.25
NPIW | ≤ 0.25

Variant | enrichment ratio
ATQI | ≤ 0.25
YYPY | ≤ 0.25
VVHR | ≤ 0.25
VQHI | 0.713
HSGI | ≤ 0.25
RYEF | ≤ 0.25
FGFI | ≤ 0.25
TFMI | ≤ 0.25
HMDI | ≤ 0.25
WYKD | ≤ 0.25
ARFV | ≤ 0.25
PRFL | ≤ 0.25
PGVF | ≤ 0.25
WNCF | ≤ 0.25
DDVK | ≤ 0.25
HMEG | ≤ 0.25
DEWP | ≤ 0.25
QHVH | ≤ 0.25
DFYE | ≤ 0.25
FEEI | ≤ 0.25
IIFL | ≤ 0.25
ATCL | 18.6
MAKH | ≤ 0.25
RRGD | ≤ 0.25

Variant | enrichment ratio
GNHY | ≤ 0.25
VLPY | ≤ 0.25
INYT | ≤ 0.25
RIAM | ≤ 0.25
KVTV | ≤ 0.25
WMYG | ≤ 0.25
MNNR | ≤ 0.25
YRPW | ≤ 0.25
QFCD | ≤ 0.25
WKTN | ≤ 0.25
EVDG | ≤ 0.25
NVWL | ≤ 0.25
WDYP | ≤ 0.25
GESV | 1.28
YMCV | ≤ 0.25
PFGV | ≤ 0.25
QTYT | ≤ 0.25
VAAQ | ≤ 0.25

— a collection of fitness landscapes (doi:10.1126/science.1257360)
